Test results reported in PubChem BioAssay AID686978 (National Center for Advancing Translational Sciences (NCATS), 2013).
Out of some 420,000 compounds screened, about 64,000 (15%) were called active. Inconclusive results, whose numbers are uncertain, are shown with a selection of clear calls. The call rests on the fitted dose curve; in most records, active means well fitted inhibition curve with a large enough effect; inconclusive means small, poorly fitted or top-dose-only effect; inactive means flat fitted curve, though single readings scatter. No potency is given beside an inconclusive call; the fits are too rough.

Assay: qHTS for Inhibitors of human tyrosyl-DNA phosphodiesterase 1 (TDP1): qHTS in cells in absence of CPT; further: nearly all actives have a fitted effect of over 55% in size
Conditions: DT40 Tdp1-/- hTDP1 cells, no CPT, ATP luminescence, 48 h; series mostly up to 46.2 µM
Method in brief: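 Cells were dispensed at 400 per well, compounds added by pin tool, plates incubated ≥48 hr at 37 °C, then CellTiter-Glo added for 30 min at room temperature before luminescence reading. Line: DT40 Tdp1-/- complemented with hTDP1; camptothecin omitted.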
Potency means the concentration at half of the fitted maximal effect; tags describe the fitted curve by direction and shape.

SMILES	Potency
Cc1ccc(Nc2nnc(SCC(O)=C(C#N)c3nc4ccccc4[nH]3)s2)c(C)c1	inconclusive [inhibitor, single point]
Nc1cc(-c2cccc(Br)c2)nn1Cc1ccccc1	inconclusive [inhibitor, single point]
CCOC(=O)C1CCN(C(=O)CSc2nccc(C)n2)CC1	inactive
CCC1CCc2sc(C(=O)N3CCN(c4ccccn4)CC3)cc2C1 (stereo not drawn)	inconclusive [inhibitor, single point]
Cc1ccc(N(CC2CO2)S(=O)(=O)c2ccc(C)cc2)cc1 (stereo not drawn)	inconclusive [inhibitor, single point]
COc1ccc(N2CCN(C(=O)CCn3c(=O)[nH]c4cc(OC)c(OC)cc4c3=O)CC2)cc1	inactive
O=C(O)CCc1ccc(-c2ccccc2)n1CC(=O)O	inactive
CCc1ccc(CNC(=O)C(C)n2ccc3cc(S(=O)(=O)N4CCCCCC4)ccc32)cc1 (stereo not drawn)	inconclusive [inhibitor, single point]
CCN(CC)CCNC(=S)NC(=O)c1cn(-c2ccccc2)nc1-c1ccc(OC)cc1	inconclusive [inhibitor, single point]
CCc1nc2ccc(C(=O)NCCOc3ccc(OC)cc3)cn2c1N(C)CCCc1ccccc1	inconclusive [inhibitor, single point]
CCOC(=O)C1=C(O)/C(=C/c2cc(OC)c(OC)c(OC)c2)SC1=Nc1ccc(OC)cc1	active: 20.6 µM
CC(C)(C)C(=O)Nc1cc2c3c(c1)CC(=O)N3CCC2	inactive
CCCOc1c(OC)cccc1C1CC(=O)Nc2cc(OC)c(OC)c(OC)c21 (stereo not drawn)	inconclusive [inhibitor, single point]
Cc1cc(Nc2ccccc2)nc(-c2ccccc2O)n1	inconclusive [inhibitor, single point]
Cc1ccc(OCC(=O)NNC(=O)Cc2ccc(S(=O)(=O)N3CCOCC3)s2)cc1	inactive
COC(=O)c1c[nH]c(=O)c2ccccc12	inconclusive [inhibitor, partial curve, poor fit]
CC12CCC(C(=O)N(NC(=O)c3ccccc3O)C1=O)C2(C)C (stereo not drawn)	active: 18.4 µM
CCc1ccc(NCCC(=O)c2ccc(Br)cc2)cc1	inconclusive [inhibitor, single point]
Cc1cccc(NC(=O)CCS(=O)(=O)c2cccc3nsnc23)c1C	inconclusive [inhibitor, single point]
CCc1ccc(CNC(=O)CCC(=O)n2ncc3cc(C)ccc32)cc1	inactive
COc1cccc(C(=O)NCCc2csc(-c3ccc(Cl)cc3)n2)c1	inconclusive [inhibitor, single point]
Cc1ccccc1Nc1nnc(SCC(=O)N(C)C2CCS(=O)(=O)C2)s1 (stereo not drawn)	inactive
COc1ccc(C)cc1NC(=O)CSc1nnc(-c2ccccn2)n1Cc1ccco1	inactive

SMILES	Potency
Cc1ccc(C)c(NC(=O)CCC(=O)N/N=C/c2cc([N+](=O)[O-])ccc2O)c1	inconclusive [inhibitor, single point]
COc1ccc(CCn2c(C)cc(C(=O)CSc3nnnn3C)c2C)cc1	inconclusive [inhibitor, single point]
O=C(Nc1ccc(S(=O)(=O)Nc2ccccc2)cc1)C1COc2ccccc2O1 (stereo not drawn)	active: 20.6 µM
CC(C)N(C(=O)COC(=O)c1cccc(S(=O)(=O)N2CC3(C)CC2CC(C)(C)C3)c1)C(C)C (stereo not drawn)	inconclusive [inhibitor, single point]
O=C(Nc1ccc(Cl)cc1)C1Cc2c(-c3cccc(F)c3)ccnc2O1 (stereo not drawn)	active: 18.4 µM
CCOC(=O)CSC1=Nc2ccccc2C2=NC(CCC(=O)NCc3ccc(F)cc3)C(=O)N12 (stereo not drawn)	inconclusive [inhibitor, partial curve]
COc1ccc(NC(=O)COc2ccccc2Cc2ccccc2)cn1	inconclusive [inhibitor, partial curve]
COc1ccc2c(c1)OC[C@H]1[C@H]2N2C(=O)c3cc(Br)ccc3NC(=O)[C@@]2(C)[C@H]1c1ccccc1	inconclusive [inhibitor, single point]
Nc1ccc2c(c1)C(=O)c1ccccc1C2=O	inactive
Cc1ccc(C)c(NC(=O)C2CCCN(c3nc4ccccc4s3)C2)c1 (stereo not drawn)	inconclusive [inhibitor, single point]
Cc1ccccc1OCC(O)Cn1c(N2CCN(c3ccccc3)CC2)nc2c1c(=O)[nH]c(=O)n2C (stereo not drawn)	inconclusive [inhibitor, full curve, poor fit]
Brc1cccc(CNCc2cccs2)c1	inconclusive [inhibitor, full curve, poor fit]
Cc1cccc(NC(=O)c2cc(N3CCOCC3)nc3ccccc23)c1	inconclusive [inhibitor, single point]
CCOC(=O)CN1C=C(c2ccc3ccccc3n2)C(C[N+](=O)[O-])c2ccccc21 (stereo not drawn)	inconclusive [inhibitor, single point]
CCn1c(SCc2ccc(C)cc2)nnc1C1CCN(S(=O)(=O)c2ccc(OC)cc2)CC1	inconclusive [inhibitor, single point]
CN(C)c1ccc(O)c2c1CC1CC3[C@@H](N(C)C)C(=O)C(C(N)=O)=C(O)[C@]3(O)C(=O)C1=C2O (stereo partly drawn)	active: 3.66 µM
COc1ccccc1C1CCN(Cc2cccc(C(=O)N3CCC(O)CC3)c2)CC1	inconclusive [inhibitor, partial curve, poor fit]
COc1ccc(NC(=O)N(C)C[C@H]2Oc3c(NC(=O)C4CC4)cccc3C(=O)N([C@H](C)CO)C[C@@H]2C)cc1	inactive
O=C(OCc1ccccc1)N1CCC2CC1c1ccc(N3CCN(Cc4ccc5c(c4)OCO5)CC3)cc12 (stereo not drawn)	inconclusive [inhibitor, single point]
COc1cccc(OCc2cc(C(=O)N3CCCC3c3ccccn3)no2)c1 (stereo not drawn)	inconclusive [inhibitor, single point]
CCCNC(=O)CCn1nc(-c2ccc(Cl)cc2)c2ccccc2c1=O	inconclusive [inhibitor, partial curve]
C=Cn1cc[n+](CC(=O)c2ccc(Cl)cc2)c1	inconclusive [inhibitor, partial curve]
CCN(C(=O)c1cc2c(Cl)nc3ccccc3c2s1)c1cccc(Cl)c1	inconclusive [inhibitor, single point]

SMILES	Potency
CCOc1ccccc1N1CC(C(=O)N2CCOCC2)CC1=O (stereo not drawn)	inactive
CC(=O)Oc1ccc2c(c1)CCC1C2CCC2(C)C(OC(C)=O)CCC12 (stereo not drawn)	inactive
CCOC(=O)c1cc2cc(OC)ccc2[nH]1	inconclusive [inhibitor, single point]
CCCn1c(CNS(=O)(=O)c2ccc(C)cc2)nc2ccccc21	inconclusive [inhibitor, single point]
Cc1cccc(S(=O)Cc2ccc(C(=O)NC3CCN(Cc4ccccc4)CC3)o2)c1 (stereo not drawn)	inactive
COc1cc(OC)cc(C2=NCCN2)c1	inactive
O=C(NCC1CCCO1)C(c1ccc(F)cc1)N(C(=O)Cn1nnc(-c2ccc(F)cc2)n1)c1cccc(O)c1 (stereo not drawn)	active: 9.2 µM
CCN(C(=O)CSC1=Nc2ccccc2C2CC=NN12)C1CCS(=O)(=O)C1 (stereo not drawn)	inconclusive [inhibitor, partial curve, poor fit]
COc1ccc(NC(=O)c2ccccc2[N+](=O)[O-])cc1OC	inconclusive [inhibitor, partial curve]
CC(=O)NS(=O)(=O)c1ccc(NC(=O)CSc2ccc(C)cc2)cc1	inactive
Cc1ccc(N2NC(=O)/C(=C\c3cc4c(cc3[N+](=O)[O-])OCO4)C2=O)cc1C	inconclusive [inhibitor, single point]
CC(/C=N/NC(=O)c1cccs1)=C\c1ccccc1	active: 8.2 µM
Cc1cccc(S(=O)(=O)Nc2nc3ccccc3nc2Nc2ccc3c(c2)OCO3)c1	inconclusive [inhibitor, single point]
Cc1ccc(NC(=O)C2CCCN(S(=O)(=O)c3ccc(-n4cnnn4)cc3)C2)cc1 (stereo not drawn)	inactive
CN1c2cc(Cl)ccc2-c2nc(SCC(=O)Nc3ccc(F)cc3F)ncc2S1(=O)=O	active: 16.4 µM
Cn1cccc1CC(=O)N/N=C/C(Cl)=C/c1ccccc1	inconclusive [inhibitor, single point]
COc1ccc(C(C)(C)C)cc1NC(=O)c1cc(S(=O)(=O)N(C)C)ccc1N1CCCC1	inconclusive [inhibitor, single point]
COc1cc(/C=N/NC(=O)c2ccncc2)ccc1OCC(=O)Nc1ccc(C)c(C)c1	inconclusive [inhibitor, single point]
CC(/C=N/N1CCN(Cc2ccccc2)CC1)=C\c1ccccc1	inconclusive [inhibitor, single point]
O=S(=O)(Nc1ccccc1Cl)c1cc(NC(=S)NCCN2CCOCC2)ccc1Cl	inconclusive [inhibitor, single point]
COc1ccc(NS(=O)(=O)c2cccs2)cc1S(=O)(=O)N1CCCCC1	inconclusive [inhibitor, single point]
O=C(COc1ccccc1Cl)NCC(c1cccs1)N1CCOCC1 (stereo not drawn)	inconclusive [inhibitor, partial curve]
